The text below walks through data of ChEMBL document CHEMBL1201862, “PubChem BioAssay data set” (2004).

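Where inhibition never reached the appropriate level, the endpoint shown equals the highest concentration tested. Otherwise, values were interpolated linearly from a five-concentration, 48-hour dose response in 96-well plates. Here, GI50 denotes the concentration required for 50% inhibition of growth.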 Calls of active or inactive are those of the source. No stated cut-off is given here; in the data, active = GI50 up to about 1.1 µM and inactive = higher.

The test has as its system NCI-H322M. Nature of the test: NCI anticancer screen, dose series, 48 h.
Take `Cc1cc(C)cc(NC(N)=S)c1`: the GI50 is inactive: > 100 µM.

`O=c1oc2ccc3ccccc3c2cc1-c1nc2ccccc2o1`: the GI50 is inactive: 28.1 µM. On to `O=C(O)[C@@H](NS(=O)(=O)c1ccc2ccccc2c1)c1ccccc1`, for which the GI50 is inactive: > 100 µM. For `CCN(CC)CCCNc1ccc2nnn3c4ccc(O)cc4c(=O)c1c23` the value was inactive: 8.83 µM; for `COc1ccc(N2C(=O)c3c(c4[nH]c5ccccc5c4c4ccc(C(C)(C)C)cc34)C2=O)cc1`, inactive: 64.1 µM. For `O=C(/C=C/c1c(O)nc2ccccc2c1O)CC(=O)C(=O)Nc1cccc(O)c1` the value was inactive: > 100 µM; for `C=CCN1C[C@H](C)N([C@@H](c2ccc(C(=O)N3CCCCC3)cc2)c2cccc(OC)c2)C[C@H]1C`, inactive: 78 µM. For `Cc1cc2c(=O)cc(-c3ccc(C(=O)O)cc3)oc2c(C(N)=O)c1C` the value was inactive: > 100 µM; for `CSc1[nH]nc(N)c1C(=O)Nc1ccc(C)cc1`, inactive: 29 µM; for `COc1cccc(C2CC(C)=Nc3c(ccc4c3C(=O)c3ccccc3C4=O)N2)c1O` (stereo not drawn), active: 1.08 µM. With `O=C(O)c1cc(=O)c2c([nH]c3ccccc32)s1`, the GI50 is inactive: > 100 µM. Turning to `N#C/C(=C\c1c(Cl)cccc1Cl)c1ccccc1`, the GI50 is inactive: 8.09 µM. As to `Cc1cc(N(CCC#N)CCC#N)ccc1/C=C\C(=O)Nc1ccccc1`, the GI50 was inactive: > 100 µM. The figure for `O=C1C=C(C2=C(C3=CC(=O)c4ccccc4C3=O)C(=O)c3ccccc3C2=O)C(=O)c2ccccc21` is inactive: 9.1 µM; for `C1=C2/CC[C@H](Sc3ccccc3)[C@H]2C2(CCCCC/1)OCCO2` it is inactive: 54 µM. The figure for `CC(=O)Oc1c(C)cc(-c2cc(C)c(OC(C)=O)c(C)c2)cc1C` is inactive: 18.8 µM; for `Cc1cccc2c1C/C(=C\c1cccc(C)c1C(=O)O)C2=O` it is inactive: > 100 µM; for `CCOC(=O)NC(=O)c1cn(CCCCCCCCCCC(=O)N2CCN(CCn3cc(C(=O)NC(=O)OCC)c(=O)[nH]c3=O)CC2)c(=O)[nH]c1=O` it is inactive: > 100 µM. Regarding `O=C1C(Br)=C(Br)C(=O)c2ccc(=O)ccc21`, the GI50 is inactive: > 100 µM. For `Cc1c(-c2ccccc2)c(C#N)c2nnn(-c3ccccc3)c(=O)n12` the value was inactive: > 100 µM. As for `COc1ccc(C2SCC(=O)N2c2ccc(-c3ccc(-n4c(-c5ccccc5)nc5ccccc5c4=O)cc3)cc2)cc1` (stereo not drawn), the GI50 is inactive: 44.5 µM. The figure for `CCCS(=O)(=O)/C(=C(\c1ccc(Br)cc1)S(=O)(=O)CCC)c1ccc(Br)cc1` is inactive: > 10 µM. The figure for `CCCCCCc1cc2cc(C(=O)Nc3cccc(C(F)(F)F)c3)c(=N)oc2cc1O` is inactive: 2.66 µM; for `Cc1ccc(S(=O)(=O)NC(=O)NC(Cc2c[nH]c3ccccc23)C(=O)O)cc1` (stereo not drawn) it is inactive: > 100 µM. As to `Cc1cccc(C)c1NC(=O)/C(=N/NC(N)=S)C(C)C(=O)c1ccc(Cl)cc1` (stereo not drawn), the GI50 was inactive: > 100 µM.

`c1ccc2c(c1)nnn2CNc1ccc(N2CCCCC2)cc1`: the GI50 is inactive: > 100 µM. The figure for `Cc1ccc(SC2C(C)(C)N(C(C)C)P2(=O)N(C(C)C)C(C)C)cc1` (stereo not drawn) is inactive: > 100 µM; for `COc1ccc(-n2cnc3c(NC(CCSC)C(=O)O)ncnc32)cc1` (stereo not drawn) it is inactive: > 100 µM.

As to `COc1cc(/C=C/C(=N\NC(=O)c2ccccc2)c2sc(Nc3ccc(Cl)c(Cl)c3)nc2C)ccc1O`, the GI50 was inactive: 40.3 µM. For `CC1C(c2ccccc2O)c2cc3c(cc2OC1N1CCCC1)OCO3` (stereo not drawn) the value was inactive: 33.4 µM; for `Clc1nc2c(C#Cc3ccccc3)ncnc2n1C1CCCCO1` (stereo not drawn), inactive: 15.6 µM.

`CC(=O)Nc1cc(Cl)cc(Cl)c1O`: the GI50 is inactive: > 100 µM. The figure for `CN1C(=O)C(CCO)(C(C)(C)C)c2ccccc21` (stereo not drawn) is inactive: > 100 µM. Consider `CC(C)NC(=O)OCc1c(COC(=O)NC(C)C)n(C)c2c1ccc1ccsc12`, for which the GI50 is inactive: 13.4 µM. For `Cc1[nH]c2ccccc2c1CC/C(=N\Nc1ccccc1)c1ccccc1` the value was inactive: > 100 µM; for `O=C(c1cc(O)ccc1O)c1ccccc1C(Cl)(Cl)Cl`, inactive: > 100 µM; for `CC1=C(NC(=O)C(=O)NNC(=O)c2ccncc2)C(=O)c2ccccc2C1=O`, inactive: 14.8 µM. For `COc1c(Br)cc(Br)c(OC)c1-c1[nH]c(Br)c(Br)c1Br` the value was inactive: 9.89 µM.

For `O=C(OCCOCCOC(=O)c1c[nH]cc1-c1ccccc1)c1c[nH]cc1-c1ccccc1`, the GI50 is inactive: 23.8 µM. The figure for `C/C(=N/NC(=S)Nc1ccccc1Cl)c1cccc(/C(C)=N\NC(=S)Nc2ccccc2Cl)n1` is inactive: 4.19 µM. The figure for `CC1=Nc2ccccc2SC(c2c(Cl)cccc2Cl)C1` (stereo not drawn) is inactive: 1.85 µM. For `C1=NN(Cc2ccccc2)C(N(Cc2ccccc2)Cc2ccccc2)N1` (stereo not drawn) the value was inactive: 19 µM; for `CC(C(=O)Oc1ccc2ccccc2c1-c1c(O)ccc2ccccc12)c1ccccc1` (stereo not drawn), inactive: 15.7 µM; for `CCOC(=O)C(Cc1cn(S(=O)(=O)c2ccc(C)cc2)cn1)P(=O)(OCC)OCC` (stereo not drawn), inactive: > 100 µM. Turning to `COc1cc2oc(=O)cc(C)c2cc1O`, the GI50 was inactive: > 100 µM. For `CC1SC2(CCCCC2)N(NC(=O)CSc2nc3ccc(Cl)cc3c(=O)n2-c2ccccc2)C1=O` (stereo not drawn) the value was inactive: 32.7 µM; for `COc1ccc2c(c1)[C@@]13CCN4CC5=CCO[C@H]6CC(=O)N2[C@H]1[C@H]6[C@H]5C[C@H]43`, inactive: > 100 µM; for `N#Cc1nc(CCC(C(=O)O)N2C(=O)c3ccccc3C2=O)oc1N` (stereo not drawn), inactive: > 100 µM.

As to `CCC1C(C(=O)Nc2ccccc2C)=C(C)NC(C)=C1c1ccccc1C` (stereo not drawn), the GI50 was inactive: > 100 µM. For `CCCCCCCCCCCCCCCCS(=O)(=O)c1ccc(NN)cc1` the value was inactive: > 10 µM. Consider `COc1ccc(/C=N/Nc2nc(-c3cc4oc(=O)n(C)c4cc3Cl)cs2)cc1OC`, for which the GI50 was inactive: > 100 µM. For `CCN(CC)CCN1CCN=c2c3cc(OC)ccc3n3cnc4ccc1c2c43` the value was active: 0.343 µM; for `Cc1nn(C(=O)c2ccccc2O)c2c1C(c1ccc(O)cc1O)SC(=N)N2` (stereo not drawn), inactive: 5.93 µM. For `CCOC(=O)N(c1ccccc1)N(CC)C(=O)/C(C)=N/Nc1ccc([N+](=O)[O-])cc1` the value was inactive: 21.6 µM; for `NC1CC(=O)c2csc(Cl)c21` (stereo not drawn), inactive: 18.1 µM; for `Cc1cccc2c1C(=O)C(C1OC(=O)c3ccccc31)C2` (stereo not drawn), inactive: > 100 µM. The figure for `COc1cc(O)c(C(=O)CC(C)=O)c(OC)c1` is inactive: > 100 µM; for `CCOc1ccc(-c2oc(/C=N/NS(=O)(=O)c3ccc(C)cc3)c([N+](=O)[O-])c2-c2ccc(OCC)cc2)cc1` it is inactive: 23.2 µM; for `CC(=O)/C(C)=N/NC(=O)c1ccccc1O` it is inactive: > 10 µM. For the compound `Cc1ccc2c(c1)SC(c1cc3c(cc1Br)OCO3)S2` (stereo not drawn), the GI50 is inactive: > 31.6 µM.

Regarding `N#Cc1nc(NC(=O)c2ccccc2)sc1N`, the GI50 was inactive: > 10 µM. For `N#Cc1c(-c2ccccc2)cc(Nc2ccc(F)cc2)n2c1nc1ccccc12` the value was inactive: 2.13 µM; for `CCOc1ccc(NC(=O)C2=C(C)NC(C)=C(C(=O)Nc3ccc(OCC)cc3)C2c2ccc([N+](=O)[O-])cc2)cc1`, inactive: 66.1 µM. The figure for `Cc1cc(S(=O)(=O)NC2=Nc3cccc4cccc(c34)N2)c(S)cc1Cl` is inactive: > 100 µM. The figure for `c1cncc(C2N3CCCCC3[C@@H]3c4[nH]c5ccccc5c4CCN23)c1` (stereo partly drawn) is inactive: 91.6 µM; for `CCC(=O)Oc1c2ccsc2c(OC(=O)CC)c2ccsc12` it is inactive: 1.73 µM. With `COc1cc2c(cc1O)CC13CCC(=O)N1CCc1cc(OC)c(O)c-2c13` (stereo not drawn), the GI50 was inactive: > 6.81 µM.

Regarding `CC(C)(C)[Si](C)(C)OC1C(=O)C[C@H]2CCCC[C@@H]12` (stereo partly drawn), the GI50 was inactive: > 100 µM. For `CCc1nc(N)nc(C(=O)NCCNC(=O)c2nc(N)nc(CC)c2C)c1C` the value was inactive: > 100 µM; for `CC(=O)O[C@H]1C(=O)[C@@]2(C)[C@H]([C@H](OC(=O)c3ccccc3)[C@]3(O)C[C@H](OC(=O)[C@H](OC(=O)OCCC(O)CO)[C@@H](NC(=O)c4ccccc4)c4ccccc4)C(C)=C1C3(C)C)[C@]1(OC(C)=O)CO[C@@H]1C[C@@H]2O` (stereo partly drawn), active: < 0.01 µM.

With `COC(=O)c1ccccc1NCc1cc(O)ccc1O`, the GI50 is inactive: 56.1 µM. Regarding `CC[C@@H](C)[C@@H]1NC(=O)C(C(C)=O)=C1O`, the GI50 is inactive: 25.9 µM. As for `COc1ccccc1/C=C/C1=NN(c2cccc(S(=O)(=O)O)c2)C2(C1)SCC(=O)N2c1nc2ccccc2s1` (stereo not drawn), the GI50 was inactive: > 100 µM. For the compound `CC(C)(C)c1cc2nc(c1)C(C(F)(F)F)(C(F)(F)F)OB(Br)OC2(C(F)(F)F)C(F)(F)F`, the GI50 is active: 0.127 µM. For `Cc1cc2c(=O)cc(-c3ccc(Cl)cc3Cl)oc2c(C(=O)O)c1C` the value was inactive: > 100 µM; for `Cn1c(=O)cc2[nH]c3ccccc3n2c1=O`, inactive: > 100 µM; for `S=c1sc2ccccc2n1CN1CCN(Cc2ccccc2)CC1`, inactive: > 100 µM. In the case of `C1CSCCSCCSCCSCCS1`, the GI50 was inactive: > 100 µM. For `N=C1CSC2=NC3=C(CCC/C3=C\c3ccccc3)C(c3ccccc3)N12` (stereo not drawn) the value was inactive: 10 µM. As for `O=S(=O)(O)CS(=O)(=O)OCCCl`, the GI50 was inactive: > 100 µM. For `CC1(CO)OC1COCc1ccccc1` (stereo not drawn) the value was inactive: > 100 µM.

On to `CC1(C)[N+]([O-])=[N+]([O-])C1(C)Br` (stereo not drawn), for which the GI50 is inactive: > 100 µM. The figure for `Cc1cc(S(=O)(=O)Nc2nc(N)n(-c3ccccn3)n2)c(S)cc1Cl` is inactive: > 100 µM.
